Experiments:
[1] = molecular target: T1, human CD28 protein (Acro, CD8-H525a) (human, UniProt P10747 19-152); test: ELISA, coated human CD28
T1 construct: coated on the ELISA plate; also called human CD28 antigen

[2] = molecular target: T2, human CTLA4 protein (Acro, CT4-H52H9) (human, UniProt P16410 36-161); test: ELISA, coated human CTLA4
T2 construct: coated on the ELISA plate; also called human CTLA4 antigen
T2 sequence (looked up): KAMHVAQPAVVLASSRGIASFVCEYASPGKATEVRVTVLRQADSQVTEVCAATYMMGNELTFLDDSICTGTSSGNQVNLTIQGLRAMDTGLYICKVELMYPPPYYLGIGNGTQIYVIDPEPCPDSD

T1 sequence (P10747 19-152 limits assumed): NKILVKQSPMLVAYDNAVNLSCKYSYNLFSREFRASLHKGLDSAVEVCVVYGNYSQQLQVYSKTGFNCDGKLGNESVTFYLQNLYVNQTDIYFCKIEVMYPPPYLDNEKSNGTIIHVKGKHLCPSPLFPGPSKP

B1: functional antibody Abs-958 (other)
heavy: EVQLVESGGGLVQPGGSLRLSCAASGFTFNTYAMNWVRQAPGKGLEWVARIRSKYNNYATYYAASVKGRFTISRDDSKNSLYLQMNSLKTEDTAVYYCARHGNFGNSYVSWFAYWGQGTLVTVSS[left out - human IgG1 constant region]GGGGSGGGGSGGGGSGGGGSGAPLKIQAYFNETADLPCQFANSQNQSLSELVVFWQDQENLVLNEVYLGKEKFDSVHSKYMGRTSFDSDSWTLRLHNLQIKDKGLYQCIIHHKKPTGMIRIHQMNSELSVL
light: QTVVTQEPSLTVSPGGTVTLTCRSSTGAVTTSNYANWVQQKPGQAPRGLIGGTNKRAPGTPARFSGSLLGGKAALTLSGVQPEDEAEYYCALWYSNLWVFGGGTKLTVLGQPKAAPSVTLFPPSSEELQANKATLVCLISDFYPGAVTVAWKADSSPVKAGVETTTPSKQSNNKYAASSYLSLTPEQWKSHRSYSCQVTHEGSTVEKTVAPTECS
notes: CD3B219 heavy chain - unmutated CD86 IgV; CD3B219 light chain
With B1 the EC50 [1] was 30.7 nM and the EC50 [2] was 2.89 nM.

B2: functional antibody Abs-959 (other)
heavy: EVQLVESGGGLVQPGGSLRLSCAASGFTFNTYAMNWVRQAPGKGLEWVARIRSKYNNYATYYAASVKGRFTISRDDSKNSLYLQMNSLKTEDTAVYYCARHGNFGNSYVSWFAYWGQGTLVTVSS[left out - human IgG1 constant region]GGGGSGGGGSGGGGSGGGGSGAPLKIQAYFNETADLPCQFANSQNISLSELVVLWQDQENLVLNEVYLGKEKFDSVHSKYMGRTSFDSDSWTLRLHNLQIKDKGLYQCIIIHKKPTGMIRIHQMNSELSVL
light: QTVVTQEPSLTVSPGGTVTLTCRSSTGAVTTSNYANWVQQKPGQAPRGLIGGTNKRAPGTPARFSGSLLGGKAALTLSGVQPEDEAEYYCALWYSNLWVFGGGTKLTVLGQPKAAPSVTLFPPSSEELQANKATLVCLISDFYPGAVTVAWKADSSPVKAGVETTTPSKQSNNKYAASSYLSLTPEQWKSHRSYSCQVTHEGSTVEKTVAPTECS
notes: CD3B219 heavy chain - CD86 IgV Q25I/F33L/H90I; CD3B219 light chain
Binder B2 has an EC50 [1] of 1.88 nM and an EC50 [2] of 0.783 nM.

B3: functional antibody Abs-357 (Fc fusion)
chain: APLKIQAYFNETADLPCQFANSQNFSLSELVVFWQDQENLVLNEVYLGKEKFDSVHSKYMGRTSFDSDSWTLRLHNLQIKDKGLYQCIIVHKKPTGMIRIHQMNSELSVL[left out - human IgG4 Fc]
notes: CD86 IgV Q25F/H90V - IgG4 Fc
B3 was tested, and the EC50 [1] was 0.0814 nM and the EC50 [2] was 0.779 nM.

Source: EP4613780A1 (Adlai Nortye Biopharma Co., Ltd., dated 2025)
